# Test results from publication PMC6919601, “Identification of Plasmodium dipeptidyl aminopeptidase allosteric inhibitors by high throughput screening” (PLoS ONE, 2019).
# Values joined by “and” are separate entries in the source; they are usually repeats but may differ in a detail not shown here. Equal entries are not always repeated. About 230 (0.21%) of roughly 110,000 compounds showed an effect of 50% or more. The list shows a part of the results.
# Target: DPAP1 (Plasmodium falciparum, UniProt Q8IIJ9)
# Test: primary screen, percent inhibition; read by cleavage of a fluorogenic dipeptide substrate; higher = more effect of the substance
# Parameters: species or system P. falciparum D10 trophozoite lysates; single well
# 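Also: 30 min substrate incubation versus DMSO and 10 µM JCP410 controls.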
# Chain of DPAP1 (Q8IIJ9 whole entry, looked up): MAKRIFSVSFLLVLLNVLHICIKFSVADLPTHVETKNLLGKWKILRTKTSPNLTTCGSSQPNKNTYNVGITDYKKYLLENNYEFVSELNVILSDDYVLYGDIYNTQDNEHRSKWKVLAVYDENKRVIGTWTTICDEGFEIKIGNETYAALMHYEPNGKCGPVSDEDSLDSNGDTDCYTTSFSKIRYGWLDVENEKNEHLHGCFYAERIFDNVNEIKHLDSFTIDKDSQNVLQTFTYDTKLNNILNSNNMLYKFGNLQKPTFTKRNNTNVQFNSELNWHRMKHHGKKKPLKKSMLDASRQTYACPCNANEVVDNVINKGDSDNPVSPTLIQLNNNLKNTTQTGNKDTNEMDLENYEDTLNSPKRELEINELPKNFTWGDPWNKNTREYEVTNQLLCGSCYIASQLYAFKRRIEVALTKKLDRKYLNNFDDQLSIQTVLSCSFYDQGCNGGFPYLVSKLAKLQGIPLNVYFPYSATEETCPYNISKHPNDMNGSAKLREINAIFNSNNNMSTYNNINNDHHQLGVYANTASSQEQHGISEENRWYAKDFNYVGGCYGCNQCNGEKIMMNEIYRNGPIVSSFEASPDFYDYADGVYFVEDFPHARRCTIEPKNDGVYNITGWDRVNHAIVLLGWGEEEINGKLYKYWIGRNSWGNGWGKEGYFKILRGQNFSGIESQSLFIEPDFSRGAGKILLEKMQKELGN
row,SMILES,% Inhibition @ 10 uM
1,CC(=O)c1cccc(NC(=O)c2ccc(C)c(Br)c2)c1,0.145%
2,CC1CCc2c(sc(NC(=O)c3cccnc3)c2C(N)=O)C1 (stereo not drawn),4.39%
3,O=C(O)c1ccc(CNS(=O)(=O)c2ccc(Cl)cc2)cc1,1.42%
4,CC1CCN(S(=O)(=O)c2ccc3c(ccn3CCC(=O)NC(C)C)c2)CC1,1.06%
5,c1csc(C(N2CCOCC2)N2CCOCC2)c1,10.6%
6,COc1cccc(NC(=O)C2C(=O)N(C)c3ccccc32)c1 (stereo not drawn),26.3%
7,OC1=C2C(=Nc3ncnn3C2c2ccccc2)CCC1 (stereo not drawn),-2.06%
8,CCC1CCc2nc3sc(C(=O)Nc4nc(C)cs4)c(N)c3cc2C1 (stereo not drawn),25.1%
9,O=C(CN1C(=O)CSc2ncccc21)NCCCN1CCc2ccccc2C1,1.03%
10,CN1C(=O)c2ccccc2C(C(=O)N2CCC(c3ccccc3)C2)C1c1cccs1 (stereo not drawn),-3.27%
11,COc1cc(-c2nc(O)c3c4c(sc3n2)CCCC4)ccc1C,2.01%
12,COc1cccc(OC)c1C(=O)N1CCN(C(=O)Cc2ccccc2)CC1,-4.59%
13,CC1=CC2=NC(=O)/C(=C\c3cn(Cc4ccccc4F)c4ccccc34)C(=N)N2O1,-5.1%
14,O=C(CN(c1ccc2c(c1)OCCO2)S(=O)(=O)c1ccccc1)N1CCN(c2ccccc2)CC1,-0.425%
15,Cc1nn(-c2ccccc2)c2c1N(CC(=O)NCCc1cccs1)C(=O)CS2,-0.678%
16,NS(=O)(=O)c1ccc(CNC(=O)NC23CC4CC(CC(C4)C2)C3)cc1,4.88%
17,CCC(NS(=O)(=O)c1ccc(S(=O)(=O)N2CCOCC2)cc1)C12CC3CC(CC(C3)C1)C2 (stereo not drawn),-3.04%
18,Cc1nn(CCCC(=O)N(C)Cc2ccccc2)c(=O)c2cc3sccc3n12,-3.35%
19,Cc1ccccc1N1C(=O)C2CCCCC2C1=O (stereo not drawn),-0.0938%
20,CC1=C(C(=O)OC2CCCC2)C(c2ccc(F)cc2)NC(=O)N1 (stereo not drawn),3.44%
21,CCOc1ccc(NC(=O)c2c([N+](=O)[O-])cnn2C)cc1,-8.11%
22,CCOC(=O)N1CCN(C(=O)C(NS(=O)(=O)c2cccc3nsnc23)c2ccccc2)CC1 (stereo not drawn),-3.23%
23,Cc1cccc(Oc2coc3cc(O)ccc3c2=O)c1,-2.87%
24,CCC(=O)NCCn1c(C)cc2ccccc21,3.67%
25,O=C(Nc1cccc(Cl)c1)[C@@H]1C[C@@H]1c1ccccc1,3.1%

row,SMILES,% Inhibition @ 10 uM
1,CCOc1ccccc1CN1CCN(c2cccc(C(F)(F)F)c2)CC1,-0.0404%
2,O=S(=O)(c1ccc(F)cc1)N1CCN(c2ccccc2)CC1,-4.91%
3,COc1ccc(OC)c(NC(=O)c2c(-c3ccccc3)noc2C)c1,-7.06%
4,Cc1ccc(S(=O)(=O)N(CC(=O)NC2CCCC2)C2CCCCC2)cc1,-2.18%
5,N#CCNC(=O)[C@H](Cc1ccc2ccccc2c1)NC(=O)N1CCOCC1,-3.97%
6,Cc1ccc2c(c1)c1c3n2CCN(CCC(=O)O)C3CCC1 (stereo not drawn),-1.41%
7,Cc1occc1C(=O)NCc1ccc2c(c1)OCO2,-0.598%
8,Cn1c(NC(=O)c2cnn(-c3ccccc3)c2-n2cccc2)nc2ccccc21,0.275%
9,O=C(CCc1nc(-c2ccccc2Cl)no1)N1CCCC1,-1.35%
10,CCOC(=O)c1cnc2cc(-c3ccc(C)cc3)nn2c1C,1%
11,Cc1cc(=O)n(CC(=O)NCc2ccco2)c2c1c(C)nn2C,-1.93%
12,COc1ccccc1CNC(=O)c1ccc2c(c1)nc(C)n2-c1ccc(Br)cc1,-5.64%
13,CC/N=C1\SC(CC(=O)Nc2ccc(C(C)=O)cc2)C(=O)N1CC (stereo not drawn),-11.6%
14,Cc1cccn2c(O)cc(=O)nc12,7.74%
15,CCCCCc1ccc(-c2ccc(/C=C/C(=O)O)cc2)nc1,2.91%
16,Cc1ccc(-n2ncnc2-c2ccc(Cl)cc2Cl)cc1Cl,-2.48%
17,O=C(CCc1nc(CN2CCN(S(=O)(=O)Cc3ccccc3)CC2)no1)N1CCCC1,7.04%
18,O=C(c1ccc(COc2ccc(F)cc2)o1)N1N=C(C(F)F)CC1(O)C(F)F (stereo not drawn),3.24%
19,O=C(OC1c2ccccc2Oc2ccccc21)c1ccc(-c2ccccc2)cc1,2.62%
20,COc1ccc2c(Sc3ccc(C)cc3)c(C(=O)NCCCN3CCCC3=O)[nH]c2c1,1.15%
21,COc1ccccc1-c1nnc(C2CCN(S(=O)(=O)c3c(C)cc(C)cc3C)CC2)o1,-3.11%
22,COc1cc(CN2CCN(C(=O)C(c3ccccc3)c3ccccc3)CC2)cc(OC)c1O,-3.04%
23,CCOc1ccc(NC(=O)C2=C(C)NC(=O)NC2c2ccc(Br)cc2)cc1 (stereo not drawn),-1.17%
24,OCCn1c2ccccc2c2cc(Br)ccc21,4.22%
25,O=C(N[C@@H](Cc1ccccc1)C(=O)N[C@@H](CCc1ccccc1)C(=O)CO)C1CCCN1 (stereo partly drawn),-0.778%

row,SMILES,% Inhibition @ 10 uM
1,O=S(=O)(Nc1ccc(O)c2ccccc12)c1cccs1,2.51%
2,CC1CCN(c2c(NCC3CCC(C(=O)NC4CCCCC4C)CC3)c(=O)c2=O)CC1 (stereo not drawn),-3.96%
3,CCOc1ccc2nc(N3CCC(C(=O)NC)CC3)sc2c1,0.137%
4,CCCCC(=O)N(CC)c1nc(-c2ccccc2)cs1,-0.426%
5,CCCc1nnc(NC(=O)C(CC)Sc2nnc3c4ccccc4n(CC)c3n2)s1 (stereo not drawn),-3.64%
6,CCOC(=O)c1oc2ccc(Cl)cc2c1NC(=O)CCCN1C(=O)c2ccccc2C1=O,-0.703%
7,COc1ccc(CCn2c(N)cc(=O)[nH]c2=O)cc1OC,-16.3%
8,COc1ccc(S(=O)(=O)NCCO)cc1-c1nnc2c3ccccc3c(C)nn12,-4.78%
9,CCc1nnc(S)n1/N=C/c1ccc(OC)c(OC)c1,3.81%
10,Cc1ccc(Nc2nc(N)nc(CSc3ncccn3)n2)cc1,-2.09%
11,COc1ccc2nc(NC(=O)CCc3nc(C4=CCN(C)CC4)no3)sc2c1,-2.84%
12,CC(C)(C)c1ccc(-c2nnc(SCC(=O)O)n2Cc2ccccc2)cc1,-0.495%
13,O=C(c1ccc2c(c1)sc1nc(-c3ccc(F)cc3)cn12)N1CCN(c2ncccn2)CC1,15.9%
14,C=CCNc1sc(S(=O)(=O)CC)nc1S(=O)(=O)c1ccc(Cl)cc1,-2.47%
15,CCOC(=O)N1CCC(N2CC3(C)CC2CC(C)(C)C3)CC1 (stereo not drawn),-1.82%
16,COC(=O)c1ccc(-c2ccco2)n1CC(=O)N1CCN(C2CCCCC2)CC1,-5.37%
17,CCCCOc1ccccc1C1C(C(=O)OC)=CN(Cc2ccc(F)cc2)C=C1C(=O)OC,3.45%
18,O=C(CCc1nc2cccnc2n1Cc1cccs1)NCCc1ccccc1,-3.45%
19,CCc1cc2c(cc3c(=O)n(CC(=O)NC4CCCC(C)C4C)ncn32)s1 (stereo not drawn),3.29%
20,CCOC(=O)/C=C/C(=O)Nc1nccs1,-3.21%
21,Cc1ccc(/C=c2\sc3nc(-c4cccc(Cl)c4)nn3c2=O)o1,5.44%
22,O=C1C(=O)N(CN2CCCCCC2)c2ccccc21,-6.68%
23,O=C(CSc1nc(=O)c2ccccc2s1)NC12CC3CC(CC(C3)C1)C2,-0.403%
24,CS(=O)(=O)C1=NN2C(=N)/C(=C\c3ccc(Sc4ccc(Cl)cc4)o3)C(=O)N=C2S1,0.163%
25,Cc1ccc2[nH]c(C3=C(N)N(CC(C)C)CC3=O)nc2c1,0.486%

row,SMILES,% Inhibition @ 10 uM
1,O=[N+]([O-])c1ccc(N2CCN(Cc3ccc(-c4ccccc4)cc3)CC2)cc1,1.48%
2,CC(=C/C(=O)O)/C=C/c1c[nH]c2ccccc12,14.3%
3,CC(=O)c1c(C)[nH]c(C(=O)NCc2cccs2)c1C,-8.06%
4,COc1ccc(C(=O)OC2CC3CCC(C2)[N+]3(C)[O-])cc1OC (stereo not drawn),8.36%
5,CC(C)(C)c1ccc(C(CC(=O)O)NC(=O)CCCc2ccccc2)cc1 (stereo not drawn),6.17%
6,CCOc1ccccc1C(=O)NC1(C(F)(F)F)NC(=O)N(C)C1=O (stereo not drawn),-0.736% and 5.17%
7,CCCN1CCN(C(=O)c2cc3c(s2)-c2ccccc2OC3)CC1,-1.37%
8,CCN(CC)C(=O)NC(=O)c1c(C)cc(Cl)nc1Cl,4.32%
9,CCC1CCCCN1CCCNC(=O)c1ccc(CS(=O)(=O)Cc2ccccc2F)o1 (stereo not drawn),-4.53%
10,CCOC(=O)C1=C(CS(=O)(=O)c2ccc(F)c(C)c2)NC(=O)NC1c1ccccc1 (stereo not drawn),-7.71%
11,CCOc1ccc(/C=C2/SC(N3CCCCC3)=NC2=O)cc1,-1.89%
12,O=C(CN1CCN(Cc2ccc(F)cc2Cl)C1=O)NCc1cccs1,0.128%
13,O=C(CSc1[nH]c(-c2ccccc2)nc1-c1ccccc1)NCc1ccco1,0.163%
14,CCOc1ccc(N2C(=O)CC(NCCc3ccc(F)cc3)C2=O)cc1 (stereo not drawn),2.54%
15,CCOC(=O)c1nnn(-c2nonc2-n2cccc2)c1CS(=O)(=O)Cc1ccccc1,-0.92%
16,Cc1ccc(CNC(=O)C2CCN(S(C)(=O)=O)CC2)cc1,3.66%
17,CSc1ccccc1NC(=O)c1c(F)cccc1F,4.07%
18,COc1ccccc1OCCCN1CCCC1,2.41%
19,COc1ccc2c(CNC3CCC(C)CC3)c(C(=O)O)n(Cc3ccc(C)cc3)c2c1 (stereo not drawn),5.68%
20,O=C(CSc1nccn1CCc1ccccc1)NCCOc1ccc(Cl)cc1,-1.24%
21,Cc1c2cnn(CC(=O)NCc3ccc4c(c3)OCO4)c(=O)c2c(C)n1Cc1ccccc1F,-2.17%
22,O=C1C2C3C=CC(O3)C2C(=O)N1c1ccccc1Br (stereo not drawn),-6.08%
23,O=c1c(F)cn(C2CCCO2)c(=O)n1CCCCCCO (stereo not drawn),2.01%
24,Cc1cc(NC(=O)CSc2nnc(Cc3cccn3C)n2-c2ccc(Cl)cc2)no1,-3.1%
